Laboratory results reported in US20250213530A1 (GH RESEARCH IRELAND LIMITED, priority 2022, published 2025).

What was measured:
[1] = system: patients with treatment-resistant major depressive disorder (TRD); assay: Phase 1/2 clinical trial of inhaled 5-MeO-DMT, BPRS; conditions: for BPRS Emotional Withdrawal, sum of patient scores: baseline 13; for BPRS Anxiety, sum of patient scores: baseline 25
[2] = system: patients with treatment-resistant major depressive disorder (TRD); assay: Phase 1/2 clinical trial of inhaled 5-MeO-DMT, MADRS
[3] = 12 mg n = 4, 2 hours after dose, baseline 16
[4] = 12 mg n = 4, day 1, baseline 16
[5] = 12 mg n = 4, day 7, baseline 16

With `COc1ccc2[nH]cc(CCN(C)C)c2c1` [5-MeO-DMT] the “BPRS Blunted Affect, sum of patient scores” value (“BPRS Blunted Affect, sum” for short) ([1]; 12 mg n = 4, 3 hours after dose, baseline 11) was 8, the “BPRS Tension, sum of patient scores” value ([1]; 12 mg n = 4, 3 hours after dose, baseline 14) was 9 and the “BPRS Guilt Feelings, sum of patient scores” value (shortened to “BPRS Guilt Feelings, sum”) ([1]; 12 mg n = 4, 3 hours after dose, baseline 18) was 9. The “BPRS Blunted Affect, sum” value ([1]; 12 mg n = 4, day 1, baseline 11) was 6, the “BPRS Emotional Withdrawal, sum of patient scores” value (shortened to “BPRS Emotional Withdrawal, sum”) ([1]; 12 mg n = 4, day 1) was 8 and the “BPRS Tension, sum of patient scores” value ([1]; 12 mg n = 4, day 1, baseline 14) was 6. For the same molecule, the “BPRS Guilt Feelings, sum” value ([1]; 12 mg n = 4, day 1, baseline 18) was 5, the “BPRS Anxiety, sum of patient scores” value ([1]; 12 mg n = 4, day 1) was 6 and the “BPRS Blunted Affect, sum” value ([1]; 12 mg n = 4, day 7, baseline 11) was 5. For the same molecule, the “BPRS Emotional Withdrawal, sum” value ([1]; 12 mg n = 4, day 7) was 6, the “BPRS Tension, sum of patient scores” value ([1]; 12 mg n = 4, day 7, baseline 14) was 6 and the “BPRS Guilt Feelings, sum” value ([1]; 12 mg n = 4, day 7, baseline 18) was 5. For the same molecule, the “BPRS Anxiety, sum of patient scores” value ([1]; 12 mg n = 4, day 7) was 6, the “BPRS Emotional Withdrawal, sum” value ([1]; IDR n = 8, day 1) was 8 and the “BPRS Blunted Affect, sum” value ([1]; IDR n = 8, day 1, baseline 15) was 8. For the same molecule, the “BPRS Emotional Withdrawal, sum” value ([1]; IDR n = 8, day 7) was 8, the “BPRS Blunted Affect, sum” value ([1]; IDR n = 8, day 7, baseline 15) was 8 and the “BPRS Tension, sum of patient scores” value ([1]; IDR n = 8, day 7, baseline 16) was 10. For the same molecule, the “BPRS Guilt Feelings, sum” value ([1]; IDR n = 8, day 7, baseline 34) was 10, the “MADRS Suicidal Thoughts, sum of patient scores” value (“MADRS Suicidal Thoughts, sum” for short) ([2]; 12 mg n = 4, 2 hours after dose, baseline 8) was 3 and the “MADRS Inner Tension, sum of patient scores” value (“MADRS Inner Tension, sum” below) ([2]; 12 mg n = 4, 2 hours after dose, baseline 13) was 2. For the same molecule, the “MADRS Concentration Difficulties, sum of patient scores” value (“MADRS Concentration Difficulties, sum” for short) [2, 3] was 7, the “MADRS Inability to Feel, sum of patient scores” value (“MADRS Inability to Feel, sum” below) [2, 3] was 9 and the “MADRS Lassitude, sum of patient scores” value [2, 3] was 10. The “MADRS Pessimistic Thoughts, sum of patient scores” value (from here on “MADRS Pessimistic Thoughts, sum”) [2, 3] was 8, the “MADRS Suicidal Thoughts, sum” value ([2]; 12 mg n = 4, day 1, baseline 8) was 5 and the “MADRS Reduced Sleep, sum of patient scores” value (shortened to “MADRS Reduced Sleep, sum”) ([2]; 12 mg n = 4, day 1, baseline 12) was 10. The “MADRS Inner Tension, sum” value ([2]; 12 mg n = 4, day 1, baseline 13) was 3, the “MADRS Concentration Difficulties, sum” value [2, 4] was 2 and the “MADRS Inability to Feel, sum” value [2, 4] was 1. The “MADRS Lassitude, sum of patient scores” value [2, 4] was 0, the “MADRS Pessimistic Thoughts, sum” value [2, 4] was 7 and the “MADRS Suicidal Thoughts, sum” value ([2]; 12 mg n = 4, day 7, baseline 8) was 7. For the same molecule, the “MADRS Reduced Sleep, sum” value ([2]; 12 mg n = 4, day 7, baseline 12) was 6, the “MADRS Inner Tension, sum” value ([2]; 12 mg n = 4, day 7, baseline 13) was 5 and the “MADRS Concentration Difficulties, sum” value [2, 5] was 3. The “MADRS Inability to Feel, sum” value [2, 5] was 1, the “MADRS Lassitude, sum of patient scores” value [2, 5] was 3 and the “MADRS Pessimistic Thoughts, sum” value [2, 5] was 8. The “MADRS Suicidal Thoughts, sum” value ([2]; IDR n = 8, 2 hours after last dose, baseline 11) was 3, the “MADRS Lassitude, sum of patient scores” value ([2]; IDR n = 8, 2 hours after last dose, baseline 27) was 10 and the “MADRS Pessimistic Thoughts, sum” value ([2]; IDR n = 8, 2 hours after last dose, baseline 28) was 7. The “MADRS Suicidal Thoughts, sum” value ([2]; IDR n = 8, day 1, baseline 11) was 1, the “MADRS Inner Tension, sum” value ([2]; IDR n = 8, day 1, baseline 26) was 6 and the “MADRS Lassitude, sum of patient scores” value ([2]; IDR n = 8, day 1, baseline 27) was 5. For the same molecule, the “MADRS Pessimistic Thoughts, sum” value ([2]; IDR n = 8, day 1, baseline 28) was 4, the “MADRS Concentration Difficulties, sum” value ([2]; IDR n = 8, day 1, baseline 30) was 1 and the “MADRS Inability to Feel, sum” value ([2]; IDR n = 8, day 1, baseline 36) was 2. For the same molecule, the “MADRS Suicidal Thoughts, sum” value ([2]; IDR n = 8, day 7, baseline 11) was 3, the “MADRS Reduced Sleep, sum” value ([2]; IDR n = 8, day 7, baseline 25) was 9 and the “MADRS Lassitude, sum of patient scores” value ([2]; IDR n = 8, day 7, baseline 27) was 3. For the same molecule, the “MADRS Pessimistic Thoughts, sum” value ([2]; IDR n = 8, day 7, baseline 28) was 3, the “MADRS Concentration Difficulties, sum” value ([2]; IDR n = 8, day 7, baseline 30) was 9 and the “MADRS Inability to Feel, sum” value ([2]; IDR n = 8, day 7, baseline 36) was 6. For the same molecule, the “patients with MADRS remission (total score less than or equal to 10)” value ([2]; Part A, 12 mg single dose, n=4, day seven) was 50%.
